Assay results from publication PMC3566120.
No constants are given. Whether binding was seen depends on the method and setting. In cells and extracts the contact can be indirect. Some entries that bind do so weakly or less than the wild type. Tags and fused reporters may be left off the sequences shown.

Protein sequences, listed by entry. Tags and fused reporters are not part of them.
UniProt P03496: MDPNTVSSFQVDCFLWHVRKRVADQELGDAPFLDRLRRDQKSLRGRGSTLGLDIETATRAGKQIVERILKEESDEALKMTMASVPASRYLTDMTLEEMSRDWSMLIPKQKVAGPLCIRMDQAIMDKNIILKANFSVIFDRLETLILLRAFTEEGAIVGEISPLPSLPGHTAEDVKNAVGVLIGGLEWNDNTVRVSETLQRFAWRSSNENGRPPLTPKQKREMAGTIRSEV

Columns and labels:
[1] = biological target: T1, Myc-tagged wild-type hGBP1 (human guanylate-binding protein 1) (human) (UniProt P32455); assay: co-IP
T1 sequence: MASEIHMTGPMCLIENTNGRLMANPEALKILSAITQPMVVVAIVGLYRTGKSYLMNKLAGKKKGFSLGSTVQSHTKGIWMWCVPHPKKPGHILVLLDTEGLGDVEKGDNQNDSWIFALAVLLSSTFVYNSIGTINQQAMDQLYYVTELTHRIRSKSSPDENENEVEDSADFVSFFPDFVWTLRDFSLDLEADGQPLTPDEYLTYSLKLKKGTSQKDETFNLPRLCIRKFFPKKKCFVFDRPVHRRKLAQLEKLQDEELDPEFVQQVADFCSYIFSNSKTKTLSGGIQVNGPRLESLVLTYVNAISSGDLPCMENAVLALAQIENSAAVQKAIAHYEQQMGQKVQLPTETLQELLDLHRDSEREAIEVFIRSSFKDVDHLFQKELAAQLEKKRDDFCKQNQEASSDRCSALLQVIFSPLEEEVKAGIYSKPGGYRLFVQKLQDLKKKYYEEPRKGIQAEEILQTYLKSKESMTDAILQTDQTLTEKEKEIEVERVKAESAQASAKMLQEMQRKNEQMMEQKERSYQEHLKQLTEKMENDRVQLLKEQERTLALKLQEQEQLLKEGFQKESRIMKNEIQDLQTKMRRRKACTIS

[2] = biological target: T2, hGBP1 fused to the N-terminal fragment of venus fluorescent protein (human) (UniProt P32455); assay: split reporter
T2 sequence: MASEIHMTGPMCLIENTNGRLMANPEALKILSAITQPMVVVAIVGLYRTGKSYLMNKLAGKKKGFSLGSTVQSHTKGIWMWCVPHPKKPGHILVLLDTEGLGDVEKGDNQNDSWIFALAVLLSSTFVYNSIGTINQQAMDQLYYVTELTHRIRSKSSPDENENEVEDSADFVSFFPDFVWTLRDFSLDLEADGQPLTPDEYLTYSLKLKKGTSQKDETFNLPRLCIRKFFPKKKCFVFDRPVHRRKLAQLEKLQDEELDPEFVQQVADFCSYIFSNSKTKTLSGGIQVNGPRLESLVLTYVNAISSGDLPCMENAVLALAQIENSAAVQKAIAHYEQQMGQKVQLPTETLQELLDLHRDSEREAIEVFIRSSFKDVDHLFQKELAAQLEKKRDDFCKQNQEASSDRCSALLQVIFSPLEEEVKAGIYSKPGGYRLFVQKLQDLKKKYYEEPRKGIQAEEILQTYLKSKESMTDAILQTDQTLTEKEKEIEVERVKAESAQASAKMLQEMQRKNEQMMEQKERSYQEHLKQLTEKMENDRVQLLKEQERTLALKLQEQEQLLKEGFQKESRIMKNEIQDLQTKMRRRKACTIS

[3] = biological target: Flag-tagged viral matrix protein 1 (UniProt P03485); assay: co-IP
[4] = biological target: Flag-tagged wild-type NS1 (nonstructural protein 1) of influenza A virus PR8 (influenza A virus A/Puerto-Rico/8/34 (H1N1; PR8)) (UniProt P03496); assay: co-IP

Flag-tagged wild-type NS1 (nonstructural protein 1) of influenza A virus PR8 (from UniProt P03496 1-230)
binding [1]: binds

Flag-tagged viral matrix protein 1 (from UniProt P03485 1-252)
binding [1]: no binding

NS1 fused to the C-terminal fragment of venus fluorescent protein (from UniProt P03496 1-230)
binding [2]: binds

B1: Myc-tagged wild-type hGBP1 (human guanylate-binding protein 1) (protein, UniProt P32455 1-592)
chain: MASEIHMTGPMCLIENTNGRLMANPEALKILSAITQPMVVVAIVGLYRTGKSYLMNKLAGKKKGFSLGSTVQSHTKGIWMWCVPHPKKPGHILVLLDTEGLGDVEKGDNQNDSWIFALAVLLSSTFVYNSIGTINQQAMDQLYYVTELTHRIRSKSSPDENENEVEDSADFVSFFPDFVWTLRDFSLDLEADGQPLTPDEYLTYSLKLKKGTSQKDETFNLPRLCIRKFFPKKKCFVFDRPVHRRKLAQLEKLQDEELDPEFVQQVADFCSYIFSNSKTKTLSGGIQVNGPRLESLVLTYVNAISSGDLPCMENAVLALAQIENSAAVQKAIAHYEQQMGQKVQLPTETLQELLDLHRDSEREAIEVFIRSSFKDVDHLFQKELAAQLEKKRDDFCKQNQEASSDRCSALLQVIFSPLEEEVKAGIYSKPGGYRLFVQKLQDLKKKYYEEPRKGIQAEEILQTYLKSKESMTDAILQTDQTLTEKEKEIEVERVKAESAQASAKMLQEMQRKNEQMMEQKERSYQEHLKQLTEKMENDRVQLLKEQERTLALKLQEQEQLLKEGFQKESRIMKNEIQDLQTKMRRRKACTIS
binding [3]: no binding | binding [4]: binds
